This passage reports relative growth results from the supplement of paper PMC9446081.

Each structure is given as a SMILES string. In all, about 39,000 compounds went through this assay and about 220 (0.56%) showed activity. The list shows a part of the results.
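Note: static incubation at 37 °C against the wild-type strain, values averaged over two biological replicates.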

The test deals with Escherichia coli K-12 BW25113. Nature of the test: relative growth (OD600 normalised to plate interquartile mean) (fraction); higher = less growth inhibition, active = 0.2 or less. As to conditions: 50 µM; LB; incubation time: overnight (16-24 h).
With `C[C@@H]1CN([C@H](C)CO)C(=O)c2ccccc2-c2ccccc2CO[C@H]1CN(C)C(=O)Nc1cccc(C(F)(F)F)c1`, the relative growth is inactive: 0.986.
Under `C[C@@H]1CN([C@@H](C)CO)S(=O)(=O)c2ccc(C#CCN(C)C)cc2O[C@H]1CN(C)C(=O)Nc1ccccc1F` stands inactive: 0.982; under `COc1ccccc1S(=O)(=O)N(C)C[C@H]1OCc2cn(nn2)CCCC(=O)N([C@@H](C)CO)C[C@@H]1C`, inactive: 0.986.
The value for `CCOC(=O)[C@@H]1[C@H](Cc2ccccc2)[C@H]2c3cc(OC)c(OC)cc3CCN2C(=O)N1c1ccc(OC)cc1` was inactive: 1.02; that for `Cn1cnc(S(=O)(=O)N2C[C@H](O)COC[C@H]3O[C@@H](CC(=O)NC4CCCC4)CC[C@@H]32)c1` was inactive: 1.03; that for `OC[C@H]1O[C@@](CO)(O[C@@H]2O[C@H](CO)[C@@H](O)[C@H](O)[C@H]2O)[C@@H](O[C@@H]2O[C@H](CO)[C@@H](O)[C@H](O)[C@H]2O)[C@@H]1O` was inactive: 1.
The value for `CCCNC(=O)N1C[C@@H]2[C@H](c3ccccc31)[C@H](CO)N2C(=O)CN1CCOCC1` was inactive: 1.02; that for `O=C(CO)c1ccccc1` was inactive: 1.04.
With `COc1ccc(NC(=O)Nc2ccc3c(c2)CC(=O)N([C@H](C)CO)C[C@@H](C)[C@H](CN(C)Cc2ccc(C(=O)Nc4ccccc4N)cc2)O3)cc1`, the relative growth was inactive: 1.02.
The value for `CNC[C@H]1OCCCC[C@H](C)Oc2ccc(NS(=O)(=O)c3c(C)noc3C)cc2C(=O)N([C@H](C)CO)C[C@@H]1C` was inactive: 1.02; that for `Cn1cnc(S(=O)(=O)N2C[C@H](O)COC[C@H]3O[C@@H](CC(=O)NCc4cccc(F)c4)CC[C@@H]32)c1` was inactive: 0.984; that for `C[C@H]1CN([C@@H](C)CO)C(=O)c2cc(NC(=O)Nc3ccc(C(F)(F)F)cc3)ccc2O[C@H]1CN(C)S(=O)(=O)c1ccc(F)cc1` was inactive: 1.04.
Under `c1cncc(OCc2nnn3c2CNCCC3)c1` stands inactive: 1; under `C[C@H](CO)N1C[C@H](C)[C@H](CN(C)C(=O)Nc2ccc(C(F)(F)F)cc2)Oc2ccc(NC(=O)Nc3ccc(F)cc3)cc2CC1=O`, inactive: 1.02; under `C[C@H](CO)N1C[C@H](C)[C@@H](CN(C)Cc2cccc(F)c2)Oc2cc(C#CC3CC3)ccc2S1(=O)=O`, inactive: 1.04.
Under `Cc1ccc(S(=O)(=O)N(C)C[C@H]2Oc3ccc(N(C)C)cc3CC(=O)N([C@@H](C)CO)C[C@@H]2C)cc1` stands inactive: 0.998; under `C[C@@H]1CN([C@H](C)CO)S(=O)(=O)c2ccc(C#Cc3ccncc3)cc2O[C@@H]1CN(C)C(=O)C1CCOCC1`, inactive: 1.
